The text below walks through data of patent US20240342197A1, “LIMONENE EFFECTS ON TETRAHYDROCANNABINOL (THC)-INDUCED ANXIETY” (The Johns Hopkins University, priority 2021, published 2024).

One data set relates to rat brain. The conditions noted are these: cited from earlier work.
Another data set deals with healthy adult volunteers. The data set can be described thus: Previous studies of the dose effects of cannabis (10 mg and 25 mg THC) given by oral ingestion, smoking or vaporization.
Data set [1] concerns human subject. The data set can be described thus: Drug Effect Questionnaire VAS subjective ratings after vaporized THC, d-limonene and their combination. The conditions noted are these: for anxiety: expected; for mean peak subjective ratings (change-from-baseline) for "anxious" (VAS) / mean peak subjective ratings (change-from-baseline) for "paranoid" (VAS): N=16; for mean peak subjective ratings (change-from-baseline) for "anxious" (VAS): FIG. 3; for mean peak subjective ratings (change-from-baseline) for "paranoid" (VAS): FIG. 4.

The subject of data set [2] is individuals previously naïve to its effects. The conditions noted are these: given intravenously or orally; cited from earlier work.
The subject of data set [3] is subjective effects of THC. The conditions noted are these: in vivo; cited from earlier work.
For data set [4], the system named is human subject. The data set can be described thus: Preliminary studies by the inventors, administration of d-limonene. The conditions noted are these: either 1-mg or 5-mg d-limonene.
The conditions of data set [5]: inhaled from ambient air; cited from earlier work.
Another data set relates to mice. The conditions noted are these: suggested by studies of citrus oils in mice; cited from earlier work.
Where [6] appears, read: 10-mg THC dose, oral, smoked and vaporized, infrequent cannabis users.
Where [7] appears, read: 25-mg THC dose, oral, smoked and vaporized, infrequent cannabis users.
Where [8] appears, read: limonene also administered with THC, versus THC alone.

Consider `C=C(C)[C@@H]1CC=C(C(=O)O)CC1` [perillic acid], for which the stress reduction entry in the data set on rat brain is recorded as “stress reduction effects”.

Regarding `CCCCCc1cc(O)c2c(c1)OC(C)(C)[C@@H]1CCC(C)=C[C@@H]21` [THC, (−)-trans-Δ^9-tetrahydrocannabinol], the drug effects entry with healthy adult volunteers (10-mg THC dose, vaporized cannabis) is “mild to moderate drug effects”. In the data set with healthy adult volunteers (setting [6]), the pleasant drug effects entry was “increase in pleasant drug effects” and the unpleasant side effects entry is given as “few unpleasant side effects”. Further, the anxiety result in the data set with healthy adult volunteers (25-mg THC dose, vaporized cannabis, FIG. 1) is reported as “mild to moderate anxiety in a subset of subjects”. In the data set with healthy adult volunteers (setting [7]), the “ratings of pleasant drug effects” value was “no change” and the “unpleasant drug effects, including self-reported ratings of anxiety” value is listed as “significantly increased”. In the data set with healthy adult volunteers (vaporized cannabis containing THC doses of 10 mg and 25 mg), the safety of administration result is “could be safely administered”. Moreover, the anxiety entry with human subject [1] (30-mg THC dose) is reported as “anxiety in most study subjects, but not severe anxiety”. Also, in the data set with human subject [1] (THC alone), the “mean peak subjective ratings (change-from-baseline) for "anxious" (VAS)” value is recorded as “reliably increased” and the “mean peak subjective ratings (change-from-baseline) for "paranoid" (VAS)” value is “reliably increased”. Besides, in the data set with human subject [1] (low THC dose (15 mg)), the anxiety result is recorded as “low levels of anxiety may be observed”. For the same molecule, in data set [2], the therapeutic index entry is reported as “narrow”.

Regarding `C=C(C)[C@@H]1CCC(C)=C[C@H]1c1c(O)cc(CCCCC)cc1O` [CBD, cannabidiol], in data set [3], the “modulatory effect on the subjective effects of THC” value is “failed to detect a modulatory effect”.

As for `C=C(C)[C@H]1CC=C(C)CC1` [d-limonene], in the data set with human subject [4], the adverse effects result is reported as “no adverse effects”. In data set [5], the anxiolytic effect result is given as “anxiolytic effects” and the depression result is given as “reduce depression”. Moreover, the anxiolytic effect result in the data set on mice is reported as “anxiolytic effects”. Also, in the data set on human subject [1] (setting [8]), the “mean peak subjective ratings (change-from-baseline) for "anxious" (VAS)” value is recorded as “reduced in a dose-dependent manner” and the “mean peak subjective ratings (change-from-baseline) for "paranoid" (VAS)” value is given as “reduced in a dose-dependent manner”.
